Measured values taken from patent US8669255B2, “Substituted octahydropyrrolo[1,2-a]pyrazines as calcium channel blockers” (AbbVie Inc., priority 2011, dated 2014).

biological target: human Cav2.2 (Homo sapiens, UniProt Q00975); assay: In vitro assessment of calcium channel activity using FLIPR (Ca2+ influx in IMR32 cells); assay type: cell-based; conditions: IMR32 cells endogenously expressing human Cav2.2; 60 minute pre-incubation; 2 μM nifedipine; depolarized with 80 mM KCl; average of at least two runs unless marked (*)

Compound	IC50 [nM]
CN(C)C(C(=O)N1CCN2C[C@H](Oc3cnc(C4CC4)cn3)C[C@H]2C1)c1cccc(C(F)(F)F)c1 (stereo partly drawn) [Example 175, 1-[(7R,8aS)-7-[(5-cyclopropylpyrazin-2-yl)oxy]hexahydropyrrolo[1,2-a]-pyrazin-2(1H)-yl]-2-(dimethylamino)-2-[3-(trifluoromethyl)phenyl]ethanone]	330
CC(O)(C(=O)N1CCN2C[C@H](Oc3cnc(C4CC4)cn3)C[C@H]2C1)c1cccc(C(F)(F)F)c1 (stereo partly drawn) [Example 176, 1-[(7R,8aS)-7-[(5-cyclopropylpyrazin-2-yl)oxy]hexahydropyrrolo[1,2-a]-pyrazin-2(1H)-yl]-2-hydroxy-2-[3-(trifluoromethyl)phenyl]propan-1-one]	1590
O=C(C(c1cccc(C(F)(F)F)c1)N1CCOCC1)N1CCN2C[C@H](Oc3cnc(C4CC4)cn3)C[C@H]2C1 (stereo partly drawn) [Example 177, 1-[(7R,8aS)-7-[(5-cyclopropylpyrazin-2-yl)oxy]hexahydropyrrolo[1,2-a]-pyrazin-2(1H)-yl]-2-(morpholin-4-yl)-2-[3-(trifluoromethyl)phenyl]ethanone]	1920
O=C(c1cccc(C(F)(F)F)c1)N1CC(=O)N2C[C@H](Oc3cnc(C4CC4)cn3)C[C@H]2C1 [Example 178, (7R,8aS)-7-[(5-cyclopropylpyrazin-2-yl)oxy]-2-[3-(trifluoromethyl)-benzoyl]hexahydropyrrolo[1,2-a]pyrazin-4(1H)-one]	960
CNC(C(=O)N1CCN2C[C@H](Oc3cnc(C4CC4)cn3)C[C@H]2C1)c1cccc(C(F)(F)F)c1 (stereo partly drawn) [Example 179, 1-[(7R,8aS)-7-[(5-cyclopropylpyrazin-2-yl)oxy]hexahydropyrrolo[1,2-a]-pyrazin-2(1H)-yl]-2-(methylamino)-2-[3-(trifluoromethyl)phenyl]ethanone]	580
CC(C)(C)OC(=O)NC(C(=O)N1CCN2C[C@H](Oc3cnc(C4CC4)cn3)C[C@H]2C1)c1cccc(C(F)(F)F)c1 (stereo partly drawn) [Example 180, tert-butyl {2-[(7R,8aS)-7-[(5-cyclopropylpyrazin-2-yl)oxy]hexahydro-pyrrolo[1,2-a]pyrazin-2(1H)-yl]-2-oxo-1-[3-(trifluoromethyl)phenyl]ethyl}carbamate]	490
CC(C)(C)OC(=O)NC(C(=O)N1CCN2C[C@H](Oc3cnc(C4CC4)cn3)C[C@H]2C1)c1ccc(C(F)(F)F)cc1 (stereo partly drawn) [Example 181, tert-butyl {2-[(7R,8aS)-7-[(5-cyclopropylpyrazin-2-yl)oxy]hexahydro-pyrrolo[1,2-a]pyrazin-2(1H)-yl]-2-oxo-1-[4-(trifluoromethyl)phenyl]ethyl}carbamate]	420
COC(=O)NC(C(=O)N1CCN2C[C@H](Oc3cnc(C4CC4)cn3)C[C@H]2C1)c1cccc(C(F)(F)F)c1 (stereo partly drawn) [Example 182, methyl {2-[(7R,8aS)-7-[(5-cyclopropylpyrazin-2-yl)oxy]hexahydro-pyrrolo[1,2-a]pyrazin-2(1H)-yl]-2-oxo-1-[3-(trifluoromethyl)phenyl]ethyl}carbamate]	1180
COC(=O)NC(C(=O)N1CCN2C[C@H](Oc3cnc(C4CC4)cn3)C[C@H]2C1)c1ccc(C(F)(F)F)cc1 (stereo partly drawn) [Example 183, methyl {2-[(7R,8aS)-7-[(5-cyclopropylpyrazin-2-yl)oxy]hexahydro-pyrrolo[1,2-a]pyrazin-2(1H)-yl]-2-oxo-1-[4-(trifluoromethyl)phenyl]ethyl}carbamate]	730
CN[C@@H](CC(C)C)C(=O)N1CCN2C[C@H](Oc3cnc(C4CC4)cn3)C[C@H]2C1 [Example 184, (2S)-1-[(7R,8aS)-7-[(5-cyclopropylpyrazin-2-yl)oxy]hexahydropyrrolo[1,2-a]pyrazin-2(1H)-yl]-4-methyl-2-(methylamino)pentan-1-one]	14900
CN[C@H](CC(C)C)C(=O)N1CCN2C[C@H](Oc3cnc(C4CC4)cn3)C[C@H]2C1 [Example 185, (2R)-1-[(7R,8aS)-7-[(5-cyclopropylpyrazin-2-yl)oxy]hexahydropyrrolo[1,2-a]pyrazin-2(1H)-yl]-4-methyl-2-(methylamino)pentan-1-one]	5260
CN[C@H](C(=O)N1CCN2C[C@H](Oc3cnc(C4CC4)cn3)C[C@H]2C1)c1cccc(C(F)(F)F)c1 [Example 186, (2S)-1-[(7R,8aS)-7-[(5-cyclopropylpyrazin-2-yl)oxy]hexahydropyrrolo[1,2-a]pyrazin-2(1H)-yl]-2-(methylamino)-2-[3-(trifluoromethyl)phenyl]ethanone]	2030
CN[C@@H](C(=O)N1CCN2C[C@H](Oc3cnc(C4CC4)cn3)C[C@H]2C1)c1cccc(C(F)(F)F)c1 [Example 187, (2R)-1-[(7R,8aS)-7-[(5-cyclopropylpyrazin-2-yl)oxy]hexahydropyrrolo[1,2-a]pyrazin-2(1H)-yl]-2-(methylamino)-2-[3-(trifluoromethyl)phenyl]ethanone]	370
CNC(C(=O)N1CCN2C[C@H](Oc3cnc(C4CC4)cn3)C[C@H]2C1)c1ccc(C(F)(F)F)cc1 (stereo partly drawn) [Example 188, 1-[(7R,8aS)-7-[(5-cyclopropylpyrazin-2-yl)oxy]hexahydropyrrolo[1,2-a]-pyrazin-2(1H)-yl]-2-(methylamino)-2-[4-(trifluoromethyl)phenyl]ethanone]	460
CN[C@H](C(=O)N1CCN2C[C@H](Oc3cnc(C4CC4)cn3)C[C@H]2C1)c1ccc(C(F)(F)F)cc1 [Example 189, (2S)-1-[(7R,8aS)-7-[(5-cyclopropylpyrazin-2-yl)oxy]hexahydropyrrolo[1,2-a]pyrazin-2(1H)-yl]-2-(methylamino)-2-[4-(trifluoromethyl)phenyl]ethanone]	6120
CN[C@@H](C(=O)N1CCN2C[C@H](Oc3cnc(C4CC4)cn3)C[C@H]2C1)c1ccc(C(F)(F)F)cc1 [Example 190, (2R)-1-[(7R,8aS)-7-[(5-cyclopropylpyrazin-2-yl)oxy]hexahydropyrrolo[1,2-a]pyrazin-2(1H)-yl]-2-(methylamino)-2-[4-(trifluoromethyl)phenyl]ethanone]	430
COC(=O)N[C@H](C(=O)N1CCN2C[C@H](Oc3cnc(C4CC4)cn3)C[C@H]2C1)c1ccc(C(F)(F)F)cc1 [Example 191, methyl {(1S)-2-[(7R,8aS)-7-[(5-cyclopropylpyrazin-2-yl)oxy]hexahydro-pyrrolo[1,2-a]pyrazin-2(1H)-yl]-2-oxo-1-[4-(trifluoromethyl)phenyl]ethyl}carbamate]	860
COC(=O)N[C@@H](C(=O)N1CCN2C[C@H](Oc3cnc(C4CC4)cn3)C[C@H]2C1)c1ccc(C(F)(F)F)cc1 [Example 192, methyl{(1R)-2-[(7R,8aS)-7-[(5-cyclopropylpyrazin-2-yl)oxy]hexahydro-pyrrolo[1,2-a]pyrazin-2(1H)-yl]-2-oxo-1-[4-(trifluoromethyl)phenyl]ethyl}carbamate]	770
CN[C@@H](C(=O)N1CCN2C[C@H](Oc3cnc(C4CC4)cn3)C[C@H]2C1)c1ccccc1 [Example 193, (2R)-1-[(7R,8aS)-7-[(5-cyclopropylpyrazin-2-yl)oxy]hexahydropyrrolo[1,2-a]pyrazin-2(1H)-yl]-2-(methylamino)-2-phenylethanone]	7630
CCNC(C(=O)N1CCN2C[C@H](Oc3cnc(C4CC4)cn3)C[C@H]2C1)c1ccc(C(F)(F)F)cc1 (stereo partly drawn) [Example 194, 1-[(7R,8aS)-7-[(5-cyclopropylpyrazin-2-yl)oxy]hexahydropyrrolo[1,2-a]-pyrazin-2(1H)-yl]-2-(ethylamino)-2-[4-(trifluoromethyl)phenyl]ethanone]	530
CC(C)NC(C(=O)N1CCN2C[C@H](Oc3cnc(C4CC4)cn3)C[C@H]2C1)c1ccc(C(F)(F)F)cc1 (stereo partly drawn) [Example 195, 1-[(7R,8aS)-7-[(5-cyclopropylpyrazin-2-yl)oxy]hexahydropyrrolo[1,2-a]-pyrazin-2(1H)-yl]-2-(isopropylamino)-2-[4-(trifluoromethyl)phenyl]ethanone]	1100
O=C(C(c1ccc(C(F)(F)F)cc1)N1CCCC1)N1CCN2C[C@H](Oc3cnc(C4CC4)cn3)C[C@H]2C1 (stereo partly drawn) [Example 196, 1-[(7R,8aS)-7-[(5-cyclopropylpyrazin-2-yl)oxy]hexahydropyrrolo[1,2-a]-pyrazin-2(1H)-yl]-2-(pyrrolidin-1-yl)-2-[4-(trifluoromethyl)phenyl]ethanone]	420
O=C(C(NC1CC1)c1ccc(C(F)(F)F)cc1)N1CCN2C[C@H](Oc3cnc(C4CC4)cn3)C[C@H]2C1 (stereo partly drawn) [Example 197, 2-(cyclopropylamino)-1-[(7R,8aS)-7-[(5-cyclopropylpyrazin-2-yl)oxy]-hexahydropyrrolo[1,2-a]pyrazin-2(1H)-yl]-2-[4-(trifluoromethyl)phenyl]ethanone]	1050
O=C(C(N=CC(F)(F)F)c1ccc(C(F)(F)F)cc1)N1CCN2C[C@H](Oc3cnc(C4CC4)cn3)C[C@H]2C1 (stereo partly drawn) [Example 198, 1-[(7R,8aS)-7-[(5-cyclopropylpyrazin-2-yl)oxy]hexahydropyrrolo[1,2-a]-pyrazin-2(1H)-yl]-2-[(2,2,2-trifluoroethylidene)amino]-2-[4-(trifluoromethyl)-phenyl]ethanone]	750
O=C(C(NC(=O)C(F)(F)F)c1cccc(C(F)(F)F)c1)N1CCN2C[C@H](Oc3cnc(C4CC4)cn3)C[C@H]2C1 (stereo partly drawn) [Example 199, N-{2-[(7R,8aS)-7-[(5-cyclopropylpyrazin-2-yl)oxy]hexahydropyrrolo[1,2-a]pyrazin-2(1H)-yl]-2-oxo-1-[3-(trifluoromethyl)phenyl]ethyl}-2,2,2-trifluoroacetamide]	1010
NC(C(=O)N1CCN2C[C@H](Oc3cnc(C4CC4)cn3)C[C@H]2C1)c1cccc(C(F)(F)F)c1 (stereo partly drawn) [Example 200, 2-amino-1-[(7R,8aS)-7-[(5-cyclopropylpyrazin-2-yl)oxy]hexahydro-pyrrolo[1,2-a]pyrazin-2(1H)-yl]-2-[3-(trifluoromethyl)phenyl]ethanone]	1200
O=C1CN2C[C@H](Oc3cnc(C4CC4)cn3)C[C@H]2CN1Cc1cccc(C(F)(F)F)c1 [Example 201, (7R,8aS)-7-[(5-cyclopropylpyrazin-2-yl)oxy]-2-[3-(trifluoromethyl)-benzyl]hexahydropyrrolo[1,2-a]pyrazin-3(4H)-one]	2630
